Reference: FireProtDB (doi:10.1021/bi00080a026)

Settings: Escherichia coli (strain K12), Thermal, DSC, Sodium phosphate 50 mM, reversible: yes

Thioredoxin 1 wild type (no sequence given)
Tm (pH 6): 88.4 °C
heat capacity change of unfolding (pH 6): 0.98 kcal/mol/K
unfolding enthalpy (calorimetric) (pH 6): 83.4 kcal/mol
unfolding enthalpy (van 't Hoff) (pH 6): 102 kcal/mol
Tm (pH 6.5): 86.4 °C
heat capacity change of unfolding (pH 6.5): 1.76 kcal/mol/K
unfolding enthalpy (calorimetric) (pH 6.5): 106 kcal/mol
unfolding enthalpy (van 't Hoff) (pH 6.5): 106 kcal/mol
Tm (pH 7): 86 °C
heat capacity change of unfolding (pH 7): 1.3 kcal/mol/K
unfolding enthalpy (calorimetric) (pH 7): 96.5 kcal/mol
unfolding enthalpy (van 't Hoff) (pH 7): 110 kcal/mol
Tm (pH 7.25): 85 °C
heat capacity change of unfolding (pH 7.25): 0.95 kcal/mol/K
unfolding enthalpy (calorimetric) (pH 7.25): 96.8 kcal/mol
unfolding enthalpy (van 't Hoff) (pH 7.25): 118 kcal/mol
Tm (pH 7.5): 83.5 °C
heat capacity change of unfolding (pH 7.5): 1.9 kcal/mol/K
unfolding enthalpy (calorimetric) (pH 7.5): 97.3 kcal/mol
unfolding enthalpy (van 't Hoff) (pH 7.5): 121 kcal/mol
Tm (pH 7.75): 83.9 °C
heat capacity change of unfolding (pH 7.75): 2.28 kcal/mol/K
unfolding enthalpy (calorimetric) (pH 7.75): 91.3 kcal/mol
unfolding enthalpy (van 't Hoff) (pH 7.75): 120 kcal/mol
Tm (pH 8): 83.3 °C
heat capacity change of unfolding (pH 8): 3.84 kcal/mol/K
unfolding enthalpy (calorimetric) (pH 8): 85.9 kcal/mol
unfolding enthalpy (van 't Hoff) (pH 8): 119 kcal/mol
